Reference: PMC4336329 (PLoS ONE, 2015)
In all, about 310,000 compounds went through this assay and about 2,200 (0.71%) showed an effect of 50% or more. The effect is printed as a negative number. The list shows a part of the results.

Molecular target: human ether-à-go-go-related gene (hERG) potassium channel (human, UniProt Q12809)
Assay: primary screen, population patch clamp on CHO cells stably expressing hERG

human ether-à-go-go-related gene (hERG) potassium channel, sequence (Q12809 whole entry, looked up): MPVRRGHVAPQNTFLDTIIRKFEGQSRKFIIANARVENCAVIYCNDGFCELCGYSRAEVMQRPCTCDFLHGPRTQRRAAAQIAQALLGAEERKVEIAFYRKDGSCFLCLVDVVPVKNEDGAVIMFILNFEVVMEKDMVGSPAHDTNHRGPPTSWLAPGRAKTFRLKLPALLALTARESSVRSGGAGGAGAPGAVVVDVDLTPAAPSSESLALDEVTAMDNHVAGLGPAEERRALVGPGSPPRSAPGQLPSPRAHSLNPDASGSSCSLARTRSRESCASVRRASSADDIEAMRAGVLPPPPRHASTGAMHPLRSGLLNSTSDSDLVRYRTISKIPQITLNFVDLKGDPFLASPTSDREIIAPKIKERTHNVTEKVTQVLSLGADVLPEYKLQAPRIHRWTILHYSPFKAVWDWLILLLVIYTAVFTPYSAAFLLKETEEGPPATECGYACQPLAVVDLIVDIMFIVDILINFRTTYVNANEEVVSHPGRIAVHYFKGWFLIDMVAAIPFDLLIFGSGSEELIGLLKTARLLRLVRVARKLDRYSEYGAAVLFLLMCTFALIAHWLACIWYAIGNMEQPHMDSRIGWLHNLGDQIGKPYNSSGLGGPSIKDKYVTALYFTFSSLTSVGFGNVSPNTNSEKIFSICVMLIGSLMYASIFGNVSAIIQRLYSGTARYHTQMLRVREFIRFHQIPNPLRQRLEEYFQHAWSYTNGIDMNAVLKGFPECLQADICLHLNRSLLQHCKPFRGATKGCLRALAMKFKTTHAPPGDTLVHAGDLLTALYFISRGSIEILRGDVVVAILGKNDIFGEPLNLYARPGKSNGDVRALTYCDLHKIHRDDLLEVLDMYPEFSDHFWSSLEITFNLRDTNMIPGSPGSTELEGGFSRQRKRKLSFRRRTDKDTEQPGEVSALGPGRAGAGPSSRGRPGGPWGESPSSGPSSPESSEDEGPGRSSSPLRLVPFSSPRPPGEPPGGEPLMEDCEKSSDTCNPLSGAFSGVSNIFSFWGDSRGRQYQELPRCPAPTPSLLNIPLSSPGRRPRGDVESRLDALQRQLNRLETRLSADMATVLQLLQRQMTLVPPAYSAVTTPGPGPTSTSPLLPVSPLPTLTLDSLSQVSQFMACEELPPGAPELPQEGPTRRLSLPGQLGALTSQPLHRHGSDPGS

Compared with `Cc1ccc(SC(C)C(=O)NCc2cccnc2)cc1` (centres unmarked), `CC(NS(=O)(=O)c1ccc(F)cc1)C(=O)NCc1ccncc1` (centres unmarked) is lower in “hERG current change (%, negative = inhibition) at 1uM” value: 7.77% for the first, -0.322% for the second.

First: COc1ccc(Cl)cc1NC(=O)C/C(C)=N/NC(=O)C(=O)NCc1ccccc1
Second: CNCc1ccc(OCc2ccccc2)c(OC)c1
The “hERG current change (%, negative = inhibition) at 1uM” value of the first is higher: 12.1% for the first, 7.11% for the second.

Going from `Nc1ncn(-c2ncc(C(F)(F)F)cc2Cl)n1` to `O=C(O)c1ccc(Cn2cc(C(F)(F)F)ccc2=O)cc1`, the “hERG current change (%, negative = inhibition) at 1uM” value rises from 14.5% to 19.6%.

First: COc1ccc(CC(=O)NCc2nnc(SCc3ccc([N+](=O)[O-])cc3)n2C)cc1
Second: COc1ccc(-n2c(CNCCc3ccc(C)cc3)nc3ccccc3c2=O)cc1
The “hERG current change (%, negative = inhibition) at 1uM” value of the first is lower: -28.2% for the first, 7.64% for the second.

Going from `O=C(c1ccc2c3n(nc2c1)-c1ccccc1CO3)N1CCCCC1` to `COC(=O)c1cc(-c2ccc3c(c2)OCO3)nc2ccccc12`, the “hERG current change (%, negative = inhibition) at 1uM” value falls from 3.07% to 2.46%.

Going from `O=[N+]([O-])c1cccc(/C=N/n2c(-c3cccnc3)n[nH]c2=S)c1` to `S=c1[nH]nc(-c2ccco2)n1/N=C/c1ccccc1Cl`, the “hERG current change (%, negative = inhibition) at 1uM” value rises from 9.23% to 13.4%.

Going from `O=C(CN1C(=O)S/C(=C\c2ccc(Cl)cc2)C1=O)NC1C=CS(=O)(=O)C1` (centres unmarked) to `O=C(Cn1c(=O)oc2ccc(Cl)cc21)Nc1ccon1`, the “hERG current change (%, negative = inhibition) at 1uM” value rises from 6.73% to 10.3%.

Compared with `COc1cc(/C=C(\C#N)c2ccccn2)cc(OC)c1O`, `CCOc1ccc(-c2ncncc2-c2ccc(OC)c(OC)c2)c(O)c1` is lower in “hERG current change (%, negative = inhibition) at 1uM” value: 18.4% for the first, 3.88% for the second.

Going from `CC(O)Cc1nsc(NC(=O)c2cccs2)n1` (centres unmarked) to `CCOC(=O)Cc1csc(NC(=O)c2c(O)c3ccccc3n(CCC(C)C)c2=O)n1`, the “hERG current change (%, negative = inhibition) at 1uM” value falls from 14.2% to 6.25%.

Going from `CCN(CC)c1ccc(NC(=O)c2nc3nc(C)cc(C(F)F)n3n2)cc1` to `Cc1cccc(NC(=O)CSc2nc3ccccc3nc2N2CC(C)OC(C)C2)c1` (centres unmarked), the “hERG current change (%, negative = inhibition) at 1uM” value rises from -12.2% to -5%.

Going from `C=CCNC(=O)C1CC(=O)N(c2ccc(OCC(=O)Nc3ccc(CC)cc3)cc2)C1` (centres unmarked) to `COc1ccc(CCN2CC(C(=O)N(C)CC(=O)Nc3cccc(F)c3)CC2=O)cc1OC` (centres unmarked), the “hERG current change (%, negative = inhibition) at 1uM” value falls from 15.7% to 13.7%.

Going from `COc1ccc(NC(=O)c2cc(Br)ccc2Cl)c([N+](=O)[O-])c1` to `Nc1nc(SCC(=O)Nc2ccc([N+](=O)[O-])cc2Br)n[nH]1`, the “hERG current change (%, negative = inhibition) at 1uM” value rises from 5.86% to 8.66%.

Going from `S=C(NCc1ccccc1)NNc1nc2ccccc2[nH]1` to `O=C(Nc1ccccc1C(=O)OCC(=O)c1c[nH]c2ccccc12)c1ccco1`, the “hERG current change (%, negative = inhibition) at 1uM” value falls from 16.2% to 6.61%.

Compared with `CCC(C)[C@H](NC(=O)[C@@H]1Cc2c([nH]c3ccccc23)C2c3ccccc3C(=O)N21)C(=O)N1CCC[C@@H]1C(=O)O` (some centres unmarked), `COc1cc(C2Nc3ccccc3C(=O)N2c2ccccc2)c(Br)cc1OCC(=O)O` (centres unmarked) is higher in “hERG current change (%, negative = inhibition) at 1uM” value: 5.99% for the first, 6.46% for the second.

Going from `O=C(Cc1cc(=O)oc2cc(O)ccc12)NCC1CCC(C(=O)O)CC1` (centres unmarked) to `CCOC(=O)c1oc2c(CN3CCCCC3C)c(O)ccc2c(=O)c1-c1ccc(OC)c(OC)c1` (centres unmarked), the “hERG current change (%, negative = inhibition) at 1uM” value falls from 11.6% to -3.28%.

First: CC(C)CNC(=S)NC1CC2CCC(C1)N2Cc1ccccc1 (centres unmarked)
Second: CC1CCCC(C(=O)OCc2ccccc2)N1.Cl (centres unmarked)
The “hERG current change (%, negative = inhibition) at 1uM” value of the first is lower: -10.1% for the first, 13% for the second.

Going from `Cc1cc(C(=O)COC(=O)Cn2cnc3c2c(=O)n(C)c(=O)n3C)c(C)n1C` to `COCCCNc1nc2c(c(=O)n(C)c(=O)n2C)n1Cc1cccc(OC)c1`, the “hERG current change (%, negative = inhibition) at 1uM” value rises from 6.15% to 11.6%.

Compared with `Cc1ccnc(NS(=O)(=O)c2cc(-c3cc(C)no3)ccc2C(C)C)c1`, `COc1ccc(NS(=O)(=O)c2cc(NC(=O)c3cccc(OCc4c(C)noc4C)c3)ccc2OC)cc1` is higher in “hERG current change (%, negative = inhibition) at 1uM” value: 5.18% for the first, 17.6% for the second.

Going from `CCCS(=O)(=O)N1CCCC(C(=O)c2ccccc2OC)C1` (centres unmarked) to `CCc1nnc(NC(=O)C2CCCN(C(=O)c3ccc(Cl)cc3)C2)s1` (centres unmarked), the “hERG current change (%, negative = inhibition) at 1uM” value rises from 1.77% to 27.3%.

Compared with `CCCN1CCN(C(=O)CCNC(=O)Cn2cnc3ccccc3c2=O)CC1`, `O=C(CCn1[nH]c(=O)c2ccccc2c1=O)NCCO` is lower in “hERG current change (%, negative = inhibition) at 1uM” value: 9.86% for the first, 8.51% for the second.

Going from `CCOCCCNC(=O)C1(O)c2ccccc2NC(=O)N1c1ccc(C)c(C)c1` (centres unmarked) to `Cc1cc(C)cc(OCC(=O)NNC(=O)CN2C(=O)c3ccccc3C2=O)c1`, the “hERG current change (%, negative = inhibition) at 1uM” value falls from 14.2% to 9.33%.

Compared with `COCCn1nnnc1C(c1ccccc1)N1CCN(C)CC1.Cl` (centres unmarked), `CC(c1nnc(SCC(=O)Nc2cccnc2Cl)n1Cc1ccccc1)N(C)C` (centres unmarked) is higher in “hERG current change (%, negative = inhibition) at 1uM” value: 4.45% for the first, 10.6% for the second.

Going from `COc1ccc(-n2nc3c(N4CCC(C(=O)NCc5ccco5)CC4)nnc(C)c3c2C)cc1` to `COc1ccc(S(=O)(=O)NC(CC(=O)NCC2CCCO2)c2ccco2)cc1` (centres unmarked), the “hERG current change (%, negative = inhibition) at 1uM” value falls from 9.69% to 8.13%.

First: Cc1ccc(C(=O)C2=C(O)C(=O)N(Cc3cccnc3)C2c2cccc(Oc3ccccc3)c2)o1 (centres unmarked)
Second: CCN1C(=O)[C@H]2[C@@H](c3ccc(C)cc3)N3C(=O)N(c4cccc(Br)c4)C(=O)[C@@]3(Cc3ccccc3)[C@H]2C1=O
The “hERG current change (%, negative = inhibition) at 1uM” value of the first is higher: 12.6% for the first, 12% for the second.

First: Cc1cc(NC(=O)C2CC(c3ccc(Cl)cc3)=NO2)no1 (centres unmarked)
Second: Cc1cc(NC(=O)CSc2nnc(Nc3ccccc3)s2)no1
The “hERG current change (%, negative = inhibition) at 1uM” value of the first is lower: -3.86% for the first, 2.15% for the second.

Compared with `Cc1cc(=O)[nH]c2c1c(-c1ccccc1)nn2C`, `Cc1ccccc1N1C(=O)NC(=O)/C(=C\c2cnn(-c3ccccc3)c2)C1=O` is higher in “hERG current change (%, negative = inhibition) at 1uM” value: 11.2% for the first, 12.7% for the second.

Going from `O=c1[nH]c2cc3c(cc2cc1C(c1nnnn1C1CCCC1)N1CCSCC1)OCCO3` (centres unmarked) to `Cn1c2ccccc2c2c(C(=O)NCCCN3CCCC3=O)cn(C3CCCCC3)c(=O)c21`, the “hERG current change (%, negative = inhibition) at 1uM” value rises from 8.11% to 10.9%.

Going from `CC(C)=CCc1c(O)cc2oc3c(CC=C(C)C)c(O)c(O)c(CC=C(C)C)c3c(=O)c2c1O` to `CCOC(=O)c1c(C)[nH]c(C(=O)OCC(=O)N2CCN(S(=O)(=O)c3ccc(C)cc3C)CC2)c1C`, the “hERG current change (%, negative = inhibition) at 1uM” value falls from 10.5% to 6.79%.

Going from `CSc1ccc(S(=O)(=O)N2CCN(Cc3ccc4c(c3)OCO4)CC2)cc1` to `Cc1ccc(S(=O)(=O)N2CCN(CC(=O)N/N=C/C=C/c3ccccc3)CC2)cc1`, the “hERG current change (%, negative = inhibition) at 1uM” value falls from 4.77% to -23.9%.

Compared with `CC(C)(C)CC(=O)Nc1nnc(SCC(=O)Nc2ccccc2F)s1`, `Cn1ccnc1SCC(=O)Nc1ccc(Br)cc1C(F)(F)F` is lower in “hERG current change (%, negative = inhibition) at 1uM” value: 15.9% for the first, -0.515% for the second.

First: Cc1cccc(NC(=O)CC(=O)Nc2cccc(C)c2)c1
Second: C/C(CC(=O)Nc1cccnc1)=N\NC(=O)C(=O)NC(C)C
The “hERG current change (%, negative = inhibition) at 1uM” value of the first is lower: 13.6% for the first, 15.6% for the second.

Compared with `COc1cc(CN2CCNC(=O)C2CC(=O)N(C)CCCN2CCOCC2)cc(OC)c1` (centres unmarked), `COc1ccc(C(CCN(Cc2ccc(OC)c(OC)c2)C(C)=O)C(C)C)cc1` (centres unmarked) is lower in “hERG current change (%, negative = inhibition) at 1uM” value: 4.44% for the first, -3.75% for the second.

Going from `Cc1ccc(-n2c(C)c(C)c3c(NCCN(C)C)ncnc32)cc1` to `CCOC(=O)c1sc2nc(Cc3ccc(Cl)cc3)[nH]c(=S)c2c1C`, the “hERG current change (%, negative = inhibition) at 1uM” value rises from 6.22% to 11.7%.

Compared with `CN(CC(=O)Nc1ccccc1-c1ccccc1)C1CCCCC1.[O-][Cl+3]([O-])([O-])O`, `NS(=O)(=O)c1ccc(NC(=O)CCC2CCCCC2)cc1` is lower in “hERG current change (%, negative = inhibition) at 1uM” value: 13.3% for the first, 11.7% for the second.

Going from `CSCCC(NS(=O)(=O)/C=C/c1ccccc1)C(=O)O` (centres unmarked) to `CC(=O)OCC(=O)NCC(=O)c1c[nH]c2ccccc12`, the “hERG current change (%, negative = inhibition) at 1uM” value rises from 9.33% to 14.6%.

Compared with `CN(C)/C=C/C(=O)c1cccc(Cl)c1`, `CN(C(=O)CSc1nnc2ccccn12)C1CCS(=O)(=O)C1` (centres unmarked) is lower in “hERG current change (%, negative = inhibition) at 1uM” value: 7.78% for the first, 6.25% for the second.

First: O=C(NCN1C(=O)C2C3C=CC(C3)C2C1=O)Nc1ccccc1O (centres unmarked)
Second: O=C1C2C3C=CC(C3)C2C(=O)N1CCc1ccccc1 (centres unmarked)
The “hERG current change (%, negative = inhibition) at 1uM” value of the first is lower: 9.21% for the first, 9.23% for the second.

First: CCOC(=O)C(C#N)C(Cc1ccccc1)c1ccco1 (centres unmarked)
Second: C[C@H](CO)NC(=O)[C@H](C)[C@@H]1C[C@@]1(C)[C@@H](NC(=O)OCc1ccccc1)c1ccccc1
The “hERG current change (%, negative = inhibition) at 1uM” value of the first is higher: 0.241% for the first, -11.2% for the second.

First: O=C([O-])c1ccc(-n2nc(C(F)(F)F)c3c2CCCC3)cc1.[K+]
Second: CCn1cc(C(=O)O)c(=O)c2cnc(N3CCN(C(=S)NC(=O)c4ccc(Cl)cc4)CC3)nc21
The “hERG current change (%, negative = inhibition) at 1uM” value of the first is higher: 12.2% for the first, 8.69% for the second.

Compared with `[C-]#[N+][C@H](O[C@@H]1O[C@H](CO)[C@@H](O)[C@H](O)[C@H]1O)c1ccccc1`, `COC(=O)C1CN(C(=O)C(C)Oc2ccc(F)cc2)c2ccccc2O1` (centres unmarked) is higher in “hERG current change (%, negative = inhibition) at 1uM” value: -2.86% for the first, 14.1% for the second.

First: O=S(=O)(Cc1ccccc1)/C1=C(\N2CCOCC2)CCCCCC1
Second: CCCN1CCCc2cc(CN)ccc21.O=C(O)C(=O)O
The “hERG current change (%, negative = inhibition) at 1uM” value of the first is lower: -3.85% for the first, 8.14% for the second.

First: C=CCNC(=S)NNC(=O)c1csc(C)c1C
Second: C=C[C@@]12CN(C)[C@H]3[C@H]1[C@@]1(C(=O)Nc4ccccc41)C1CC2[C@@H]3CO1
The “hERG current change (%, negative = inhibition) at 1uM” value of the first is higher: 16% for the first, 13.4% for the second.

First: CCC(C)N1CCN(C(=O)C2CCN(S(=O)(=O)c3c(C)noc3/C=C/c3ccco3)CC2)CC1 (centres unmarked)
Second: CCNS(=O)(=O)c1ccc(OCCNS(C)(=O)=O)cc1
The “hERG current change (%, negative = inhibition) at 1uM” value of the first is lower: 5.94% for the first, 7.11% for the second.
